According to PubChem BioAssay AID624418 (National Center for Advancing Translational Sciences (NCATS), 2012):
Hit rate of the full screen: of about 410,000 compounds, about 530 (0.13%) were called active. The shares of active, inactive and inconclusive entries below differ from those in the screen. The call rests on the fitted dose curve; in most records, active means well fitted inhibition curve with a large enough effect; inconclusive means small, poorly fitted or top-dose-only effect, or another doubt; inactive means no such curve, though single readings can be large or run the other way. A potency beside an inconclusive call is a rough fit, not a confirmed value.

Test: qHTS of GLP-1 Receptor Inverse Agonists: Cytotox Screen
Conditions: HEK293 cAMP-luciferase reporter cells, luminescence, 24 h; activity change, negative = inhibition: at 38.3 µM (top of the series) unless noted
In short: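 Luminescence readout: signal drop marks cytotoxicity. Plated cells grew 12 h at 37 °C, 5% CO2, received 23 nL compound for 24 h, then got luciferase reagent, read after 12 min at RT.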
On the % scale 0 is the no-effect control and ±100 the full control effect; potency means the concentration at half of the fitted maximal effect.

Structure (SMILES) | Potency | activity change, negative = inhibition
Oc1ccc(-c2cc(-c3ccc(O)cc3)nc(-c3ccccc3)n2)cc1 | inconclusive: 28.2 µM [inhibitor, single point] | –
CCOC(=O)c1ccc(N=C2SC(C(=O)NC)CC(=O)N2CCc2ccccc2)cc1 (configuration not stated) | inconclusive: 11.2 µM [inhibitor, partial curve, poor fit] | –
COC(=O)/C(C#N)=C\c1c(OC)[nH]c2ccccc12 | inconclusive: 10 µM [inhibitor, single point] | –
Cc1cccc(CNS(=O)(=O)c2ccc(-c3cnc(C4CC4)o3)cc2)c1 | inconclusive: 10 µM [inhibitor, single point] | –
COc1ccc(C(CC(=O)c2ccc(C)cc2)C(C#N)C#N)cc1OC (configuration not stated) | inconclusive: 15.8 µM [inhibitor, single point] | –
O=C(N/N=C/c1ccccn1)c1cc(Br)ccc1O | inconclusive: 31.6 µM [inhibitor, single point] | –
O=S1(=O)CCN(c2ccccc2CC(c2c[nH]c3ccccc23)c2c[nH]c3ccccc23)CC1 | inconclusive: 22.4 µM [inhibitor, partial curve, poor fit] | –
O=C(Nc1cccc(F)c1)N(Cc1ccc(Cl)cc1)CC(O)C(F)(F)F (configuration not stated) | inconclusive: 31.6 µM [inhibitor, single point] | –
Fc1ccc(-c2[nH]ncc2CN2CCN(c3ccc(F)cc3)CC2)cc1 | inconclusive: 12.6 µM [inhibitor, single point] | –
CCOc1ccc(/C(CCC(=O)O)=N/NC(=S)NC(C)C)cc1 | inconclusive: 12.6 µM [inhibitor, single point] | –
CCCCCCCCCC1(CC(=O)OCC)SCCN1C(N)=O (configuration not stated) | inconclusive: 11.2 µM [inhibitor, partial curve, poor fit] | –
COc1cc(/C=N/NC(=O)c2ccc(Cl)cc2)ccc1OCC(=O)N1CC(C)OC(C)C1 (configuration not stated) | – | inactive: 15%
CNC(=S)NNc1nncc2ccccc12 | inconclusive: 20 µM [inhibitor, single point] | –
CCN1CCN(CCCNC(=O)c2cc3c(s2)-c2ccccc2OC3)CC1 | inconclusive: 28.2 µM [inhibitor, single point] | –
O=C(c1ccccc1)C(CCC(CN1CCOCC1)C(=O)c1ccccc1)CN1CCOCC1 (configuration not stated) | inconclusive: 5.62 µM [inhibitor, partial curve, poor fit] | –
CCOC(=O)c1c(C)[nH]c(C(=O)N/N=C/c2cccc(OC)c2)c1C | inconclusive: 25.1 µM [inhibitor, single point] | –
COc1ccc(S(=O)(=O)Nc2cc(C)on2)cc1 | inconclusive: 3.16 µM [inhibitor, partial curve, poor fit] | –
COc1ccc(-c2csc(Cc3nc(O)cs3)n2)cc1 | inconclusive: 10 µM [inhibitor, partial curve] | –
O=C(CCl)c1ccc(Cc2ncc(C(F)(F)F)cc2Cl)s1 | inconclusive: 17.8 µM [inhibitor, partial curve, poor fit] | –
Cc1ccc2nc(SC(C)C(=O)Nc3cccc([N+](=O)[O-])c3)[nH]c2c1 (configuration not stated) | inconclusive: 28.2 µM [inhibitor, single point] | –
COc1cnc(-c2ccccn2)nc1Oc1ccccc1 | inconclusive: 28.2 µM [inhibitor, single point] | –
COc1ccc(-c2nnc(SCc3cc(=O)c4cc(C)cc(C)c4[nH]3)n2C)cc1 | – | inactive: 5.45%
Clc1ccsc1-c1csc(-c2cccnc2)n1 | inconclusive: 10 µM [inhibitor, single point] | –

Structure (SMILES) | Potency | activity change, negative = inhibition
O=C(c1cccs1)c1cn(CCOc2ccccc2F)c2ccccc12 | – | inactive: 3.91%
CCOc1cc(Cl)c(S(=O)(=O)NCc2cccnc2)cc1Cl | inconclusive: 12.6 µM [inhibitor, single point] | –
COC(=O)[C@]12CCCCC=C1N(CCc1ccc(OC)c(OC)c1)C(=O)[C@H](CC(=O)N1CCC(c3ccccc3)CC1)C2 | inconclusive: 14.1 µM [inhibitor, single point] | –
COc1ccc([C@H]2CC(=O)C=C(c3ccc(OC)nc3)C2)cc1 | inconclusive: 14.1 µM [inhibitor, single point] | –
O=C1c2cc(F)ccc2-n2c1nc1ccccc1c2=O | inconclusive: 1 µM [inhibitor, full curve, poor fit] | –
C/C(=N\NC(=O)CC1N=C(Cc2ccccc2)NNC1=O)c1ccc(C)cc1 (configuration not stated) | inconclusive: 7.94 µM [inhibitor, partial curve, poor fit] | –
CC(=O)N(Cc1ccc(F)cc1)C1=C(NCCc2ccccc2)C(=O)c2ccccc2C1=O | inconclusive: 15.8 µM [inhibitor, partial curve, poor fit] | –
N#CCC(=O)N/N=C/c1cccc(Oc2ccccc2)c1 | – | inactive: -3.13%
Cc1ccc(/C=N/NC(=O)c2cccc3ccccc23)o1 | inconclusive: 0.501 µM [inhibitor, full curve, poor fit] | –
C#CC(=O)N(c1ccc(OC)c(OC)c1)C(C(=O)NC1CCCC1)c1cccs1 (configuration not stated) | inconclusive: 8.91 µM [inhibitor, partial curve, poor fit] | –
CCCC(=NCc1ccccc1)C1=C(O)C(C(=O)OC)C(C)(C)CC1=O (configuration not stated) | inconclusive: 31.6 µM [inhibitor, single point] | –
CC1(C)CC(C(CCN(Cc2ccccc2)C(=O)c2ccco2)c2ccc(F)cc2)CCO1 (configuration not stated) | inconclusive: 15.8 µM [inhibitor, single point] | –
CCn1c(=O)cc(SCC(=O)NCCc2cc(OC)ccc2OC)c2ccccc21 | – | inactive: -3.88%
CC(C)CC(COCc1cccc(Cl)c1)N1CCN(C(=O)c2ccc(C(F)(F)F)cc2)CCC1=O (configuration not stated) | – | inactive: -13%
Cc1ccc(Nc2c(N)c(=O)oc3ccccc23)cc1 | inconclusive: 25.1 µM [inhibitor, single point] | –
Cc1ccc(-c2cc3nn(-c4ccccc4)c(N)c3c(=O)o2)cc1 | – | inactive: -23.2%
Cc1ccccc1OCc1n[nH]c(=S)n1-c1ccccc1 | inconclusive: 10 µM [inhibitor, single point] | –
Cc1cc(O)cc2c1C1CCC3(C)C(O)CCC3C1C=C2 (configuration not stated) | – | inactive: -17.5%
Cc1ccnn1CC(=O)N/N=C/c1ccc([N+](=O)[O-])s1 | inconclusive: 10 µM [inhibitor, partial curve, poor fit] | –
CCOc1ccc(C(=O)c2cn(Cc3ccc(Cl)cc3)c3cc(OC)c(OC)cc3c2=O)cc1 | – | inactive: -17.4%
CNC(=O)CCCCC(=O)N/N=C/c1ccc(Cl)cc1Cl | inconclusive: 28.2 µM [inhibitor, single point] | –
Cn1c(=O)[nH]c(=O)c2c1nc(N1CCCCC1)n2CCCSc1nc2ccccc2s1 | inconclusive: 7.94 µM [inhibitor, partial curve, poor fit] | –
COc1cccc(CN2CCN(Cc3cccc(Oc4ccccc4)c3)CC2)c1OC | inconclusive: 2.51 µM [inhibitor, full curve] | –

Structure (SMILES) | Potency | activity change, negative = inhibition
CCOC(=O)c1cc(CC)sc1NC(=O)COC(=O)c1ccccn1 | – | inactive: -3.72%
COc1ccccc1NC(=O)Nc1ccc(NC(=O)c2ccccc2O)cc1 | inconclusive: 25.1 µM [inhibitor, single point] | –
OC(c1ccccc1)(c1ccccc1)C1CCN(CCCOc2ccc3c(c2)CCCC3)CC1 | inconclusive: 14.1 µM [inhibitor, partial curve, poor fit] | –
N#CC1(c2ccc(NC(=O)c3ccccc3F)cc2)CCCC1 | – | inactive: -12.4%
CCOc1ccc(N2C(=O)CC(N)C2=O)cc1 (configuration not stated) | inconclusive: 28.2 µM [inhibitor, single point] | –
COc1ccc(-n2cnc(=S)[nH]c2=S)cc1 | inconclusive: 31.6 µM [inhibitor, single point] | –
Cc1cccc(NS(=O)(=O)c2ccc(C(=O)NCC(c3ccco3)N3CCCCC3)cc2)c1C (configuration not stated) | inconclusive: 28.2 µM [inhibitor, single point] | –
COc1ccc(Cl)cc1NC(=O)CCC(=O)N1CCOc2ccccc21 | – | inactive: 2.68%
C=CCn1c(-c2sc(-c3ccccc3)nc2C)n[nH]c1=S | inconclusive: 10 µM [inhibitor, single point] | –
COc1ccc2c(c1)CC/C(=C\C=C\c1ccccc1OC)C2=O | – | inactive: -0.245%
CCN(c1ccccc1)S(=O)(=O)c1ccc(C(=O)Nc2nnc(COC)o2)cc1 | – | inactive: -23.8%
Cc1noc(-c2ccc(NCc3ccccc3)c([N+](=O)[O-])c2)n1 | – | inactive: -7.28%
O=[N+]([O-])c1ccc(SCCO)nc1SCCO | inconclusive: 8.91 µM [inhibitor, partial curve, poor fit] | –
Nc1c(-c2nc(-c3ccncc3)no2)nnn1CC(=O)Nc1ccccc1 | – | inactive: 0.129%
CCOC(=O)/C=C/C(=O)Nc1cc(S(=O)(=O)Nc2ccc(OC)cc2)ccc1N1CCOCC1 | inconclusive: 10 µM [inhibitor, partial curve, poor fit] | –
CC(C#N)Sc1nc2ccccc2c(=O)n1-c1ccccc1 (configuration not stated) | inconclusive: 3.55 µM [inhibitor, partial curve, poor fit] | –
CCOC(=O)C1CCN(Cc2cnc(Oc3ccc(Cl)cc3C)s2)CC1 | – | inactive: 2.14%
O=C1/C(=C/c2ccco2)SC(=S)N1c1cccnc1 | inconclusive: 5.62 µM [inhibitor, partial curve] | –
COc1ccc(C(=O)NC(=S)N2CC(C)OC(C)C2)cc1OC (configuration not stated) | inconclusive: 12.6 µM [inhibitor, single point] | –
CNC(=O)c1nnsc1S(=O)(=O)c1ccc(Cl)cc1 | inconclusive: 4.47 µM [inhibitor, partial curve, poor fit] | –
Cc1cc(NC(=O)CSc2nnc(-c3cccc(Cl)c3)o2)no1 | inconclusive: 28.2 µM [inhibitor, single point] | –
